Data as given in publication PMC7819943, “Rice protein-binding microarrays: a tool to detect cis-acting elements near promoter regions in rice”.
Some of the results follow.

biological target: T1, OsWOX13 (Oryza sativa, UniProt Q5QMM3 1-267); assay: protein-binding microarray (RPBM); PBS, 2% BSA, 51.3 ng/ul salmon testes DNA, 50 uM zinc acetate, 200 nM TF, 25 C, 1 h; high values mean tight binding; conditions: protein: recombinant; tags: N-terminal polyhistidine and DsRed monomer fusion (pET32a); label: CyDye5-dUTP incorporated in the synthesized complementary strand; 3' TTTTT single-stranded linker to array surface; dsDNA, one strand shown
T1 sequence: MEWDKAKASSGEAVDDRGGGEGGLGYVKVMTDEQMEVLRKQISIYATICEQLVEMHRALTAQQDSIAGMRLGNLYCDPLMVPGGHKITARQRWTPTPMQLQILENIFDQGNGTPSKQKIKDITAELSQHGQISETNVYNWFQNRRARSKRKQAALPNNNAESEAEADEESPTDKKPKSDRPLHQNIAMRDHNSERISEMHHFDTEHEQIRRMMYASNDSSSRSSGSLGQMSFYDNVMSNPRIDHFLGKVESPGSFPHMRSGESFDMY
How it was run: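 Transcription factors were each fused at the N-terminus to a polyhistidine tag plus DsRed and expressed in E. coli BL21-CodonPlus before Ni–NTA purification. Binding to a double-stranded custom Agilent array was carried out with 200 nM protein at 25 °C for 1 h in PBS, 2% BSA, salmon testes DNA and 50 µM zinc acetate. The binding signal is per-feature fluorescence intensity, in arbitrary units, on an Axon 4000B scanner.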

Sequence	binding signal
CTCTTAAATTTACGCTGTGGCTGATACTCCCTCTGTCCCGCGGAGTCACCTAGTGCAG	5940 fluorescence intensity (a.u.)
CTTAACAAGTACTAAAATTACTAATTGTCTAGTGGCCATTCGGAGTCACCTAGTGCAG	12300 fluorescence intensity (a.u.)
AGAGTTAGCCAATCATAGTGAAGAAAGCAAACCCTGATGACGGAGTCACCTAGTGCAG	3730 fluorescence intensity (a.u.)
TTTTAATTTTACTATAATAAATATACTAGGCTACTAGACTCGGAGTCACCTAGTGCAG	10800 fluorescence intensity (a.u.)
CTAAACTAAACAGAGAGGGGTGAGTATCCTCTTCCATGCGCGGAGTCACCTAGTGCAG	11300 fluorescence intensity (a.u.)
ATCTTCATTTCTTAAATTTGTGGATAAATCAGATTTTGGACGGAGTCACCTAGTGCAG	4150 fluorescence intensity (a.u.)
CGTGAACCGTGATTACTGCTCAGTTACCAAGGAAAACGGTCGGAGTCACCTAGTGCAG	8990 fluorescence intensity (a.u.)
TAGAGATTGTAGTTAGACTGAGTACTCAGTTTGTGATTTTCGGAGTCACCTAGTGCAG	4280 fluorescence intensity (a.u.)
TCAAATTGACCTAGACAATGGACCAATTGAAGGTGGTCCACGGAGTCACCTAGTGCAG	21500 fluorescence intensity (a.u.)
ATGTCAAATGGGCCAAATTGAGTGGTTATATGGGCTGTGACGGAGTCACCTAGTGCAG	3540 fluorescence intensity (a.u.)
CTAATATATTGACGTGTAATTCTTTTGTGTGTTTGTGAAACGGAGTCACCTAGTGCAG	15200 fluorescence intensity (a.u.)
TATGATTTGTTTTCTTCCTTACCAAAACAAATATTGTAATCGGAGTCACCTAGTGCAG	12900 fluorescence intensity (a.u.)
CGTTTAAATTTATTGAGCATGTAGGTTTTACCAACACAGACGGAGTCACCTAGTGCAG	7250 fluorescence intensity (a.u.)
AATCGTTCATAATTTGATGTTAATCAGTTTTCTTATCAATCGGAGTCACCTAGTGCAG	7670 fluorescence intensity (a.u.)
GATGATGGACGAACACCTGGCAAACAAAGGTGTTGAGCAACGGAGTCACCTAGTGCAG	4250 fluorescence intensity (a.u.)
GATGGTGATTATGATTCACAATTTAAGTCTGAGCAAGCCTCGGAGTCACCTAGTGCAG	19900 fluorescence intensity (a.u.)
CTAATTACTATCCATCATGTTTCTGTGGACGCGCGGCTCACGGAGTCACCTAGTGCAG	9700 fluorescence intensity (a.u.)
TATTATACAAATTACCACATCACATTTATATTCGTACTATCGGAGTCACCTAGTGCAG	6570 fluorescence intensity (a.u.)
ACTAAACTTTCAAATTTGGTATGAACTAAACGCACCCTTGCGGAGTCACCTAGTGCAG	4240 fluorescence intensity (a.u.)
CCAAATTAAGCCATTAATTAATAAAACAATATCATTAGGACGGAGTCACCTAGTGCAG	28900 fluorescence intensity (a.u.)
TTGTGTTAATTTCCTAATTAGATGCAACTTAATATCCATTCGGAGTCACCTAGTGCAG	28100 fluorescence intensity (a.u.)
AATGAGACAACTAATTGACTAGCAAATACTCCTAGTAAAGCGGAGTCACCTAGTGCAG	34300 fluorescence intensity (a.u.)
GTAATGATCGATGATGCCATCAATCACATGTGTGCACATGCGGAGTCACCTAGTGCAG	11000 fluorescence intensity (a.u.)
GTAAGGTGATTTGGAAGGCGATGACGAACAATAGACACAACGGAGTCACCTAGTGCAG	3240 fluorescence intensity (a.u.)
CAGTTAAATGAATGGAACAGTATTCTGTCACTGAAAGAGACGGAGTCACCTAGTGCAG	6490 fluorescence intensity (a.u.)
TTAATTTATTTCCGATTAATTAAATATCTACTTTACGTTACGGAGTCACCTAGTGCAG	10700 fluorescence intensity (a.u.)
ACCCGGATTAAAACGCAATCATGCATGCGCCACGATCAGACGGAGTCACCTAGTGCAG	3890 fluorescence intensity (a.u.)

Sequence	binding signal
ATAATTAATTAATTAACTAACTACTTTTAGAGGAAAACTACGGAGTCACCTAGTGCAG	32100 fluorescence intensity (a.u.)
TATTTTAATCTTATTATTGATATATGGTTTAGTTAATATGCGGAGTCACCTAGTGCAG	4480 fluorescence intensity (a.u.)
ACCAGCATTCCTCATATTGATTGTCCACAGGGTGCTACAGCGGAGTCACCTAGTGCAG	4680 fluorescence intensity (a.u.)
CCTGTGATGTGTGTAAAATTTGTGTGCCCGTCAAAGATGACGGAGTCACCTAGTGCAG	5060 fluorescence intensity (a.u.)
GCTAATTAATCTATTATTGATTTAGATGTATCGACCAGTTCGGAGTCACCTAGTGCAG	53500 fluorescence intensity (a.u.)
GCCGATATATTGACAGCAATTAAGAGTATTCATAGTGTCACGGAGTCACCTAGTGCAG	16200 fluorescence intensity (a.u.)
GTCTTGTTCATAATAGACTGGACTCTTTGATTCCTGTGTGCGGAGTCACCTAGTGCAG	3330 fluorescence intensity (a.u.)
AGATGTATATTCAATCAAAGGTATCCCTCTTTTGGATTATCGGAGTCACCTAGTGCAG	4540 fluorescence intensity (a.u.)
AACAGAAATTAGTTGATGATCATGTAGAAAAGGTGAAAGCCGGAGTCACCTAGTGCAG	3720 fluorescence intensity (a.u.)
GGGAAATTAGGGTTTCTAGAGGAGTTTACCTTCTCAATCGCGGAGTCACCTAGTGCAG	4080 fluorescence intensity (a.u.)
GGGAAGACGAGATTGAGTGGATCAAAAGCCCTAAACCAATCGGAGTCACCTAGTGCAG	8660 fluorescence intensity (a.u.)
TTTGATAGTTTGAACAGTGCATAAGACGGGTTTGGTTTGACGGAGTCACCTAGTGCAG	4040 fluorescence intensity (a.u.)
GTATCTATCAAATTTTAATTGTGTGATACGACCATTAAAACGGAGTCACCTAGTGCAG	5230 fluorescence intensity (a.u.)
CCATCATTATAATCTAAATTTGAGAGTCTGATCAAACCCACGGAGTCACCTAGTGCAG	7840 fluorescence intensity (a.u.)
GCATAAAGAATCCAATCACGAACTCTTTGTTATTTTGAATCGGAGTCACCTAGTGCAG	6550 fluorescence intensity (a.u.)
ATTAGATTTACTACTGATGATACTTTCTTGGGTTAAAACTCGGAGTCACCTAGTGCAG	11700 fluorescence intensity (a.u.)
CTTAATTACGTACTCTACCACTACCCAGCTAGCTAGTTCACGGAGTCACCTAGTGCAG	29100 fluorescence intensity (a.u.)
CAAAATAATTATGACATGAACAGTACTGAATATCAATTGTCGGAGTCACCTAGTGCAG	30400 fluorescence intensity (a.u.)
TACCACAGATTGAATGAACATATTCAACAACAAAATCATACGGAGTCACCTAGTGCAG	14100 fluorescence intensity (a.u.)
GGTAAGCATGTGATTTGTGGGAATGTTGGGCCCTAGCACACGGAGTCACCTAGTGCAG	3220 fluorescence intensity (a.u.)
GGAAAATGCTCTAATGATTGTTATGGAGTTTATCTGTAATCGGAGTCACCTAGTGCAG	5570 fluorescence intensity (a.u.)
TCCTGATTTTAAAATAAATAAAATAATTCCTGATACGTTTCGGAGTCACCTAGTGCAG	32700 fluorescence intensity (a.u.)
AATCAGTTAACTCTCTGCTGATTTGCTAATAACTGAAGTACGGAGTCACCTAGTGCAG	24500 fluorescence intensity (a.u.)
TGGAATGAATTTGATGGAAACATATCCCGACTTTGTGCAGCGGAGTCACCTAGTGCAG	7030 fluorescence intensity (a.u.)
CCGCGCCGCAATTTGATTTGATTTCCTCCTTCTCCGCCGCCGGAGTCACCTAGTGCAG	5840 fluorescence intensity (a.u.)
CTAAATTTTAAGTATAGCTAAATATTTACTCTACTGAGTCCGGAGTCACCTAGTGCAG	5190 fluorescence intensity (a.u.)
TAACTATAATTATTTTCTTTGATAAACCTTTATACTCAGTCGGAGTCACCTAGTGCAG	17700 fluorescence intensity (a.u.)
